In PubChem BioAssay AID1963576 (National Center for Advancing Translational Sciences (NCATS), 2024):
In all, about 46,000 compounds went through this assay and about 60 (0.1%) were called active. Another 3% or so got no clear call; they are omitted. The call rests on the fitted dose curve; in most records, active means well fitted inhibition curve with a large enough effect; inconclusive means small, poorly fitted or top-dose-only effect; inactive means no such curve, though single readings can be large or run the other way. This is one part of the list.

Test: Primary qHTS assay for Inhibitors of ovarian cancer metastasis using an organotypic tumor microenvironment (TME) model. Further: nearly all actives have a fitted effect of over 65% in size.
Details: SKOV3ip1-GFP adhesion/invasion on 3D omental model, fluorescence; series mostly up to 45.8 µM; activity change, negative = inhibition: at the top concentration
From the text: PI: Ernst Lengyel MD., Ph.D. Department of Obstetrics and Gynecology, Section of Gynecologic Oncology University of Chicago Medicine, Chicago, Illinois. The tumor microenvironment (TME) is a key determinant of metastatic efficiency. We performed a quantitative high-throughput screen (qHTS) of diverse medicinal chemistry tractable scaffolds (44,420 compounds) and pharmacologically active small molecules (386 compounds) using a layered organotypic, robust assay representing the ovarian cancer metastatic TME. This 3D model contains primary human mesothelial cells, fibroblasts, and extracellular matrix, to which fluorescently labeled ovarian cancer cells are added. Initially, 100 compounds inhibiting ovarian cancer adhesion/invasion to the 3D model in a dose-dependent manner were identified. Of those, eight compounds were confirmed active in five high-grade serous ovarian cancer cell lines and were further validated in secondary in vitro and in vivo biological assays. […] Specifically, NCGC00117362 and PP-121 inhibited ovarian cancer adhesion, invasion, and proliferation, whereas milciclib inhibited ovarian cancer invasion and proliferation. […] To evaluate the clinical potential of NCGC00117362, structure - activity relationship studies were performed. […] The three compounds identified have promise as therapeutics for prevention and treatment of ovarian cancer metastasis.
PROTOCOL TABLE (as described by Inglese J, Shamu CE and Guy RK. 2007) SEQUENCE No. (e.g., 1, 2, 3, etc.); […] (e.g., Cells, Incubation, Reagent, etc.); VALUE; DESCRIPTION. 1; Cells; 4 uL; primary human omental fibroblast, black, clear bottom, low base, 1536-well Aurora assay plate. 2; Incubation; 48 hr; 37C. 3; Cells; 3 uL; 1,200 SKOV3ip1-GFP cells. 4; Compounds; 23nL; acoustic dispenser. 5; Incubation; 2 hr; room temperature. 6; Incubation; 16 hr; 37C. 7; Wash; 5 uL; 1x PBS. 8; Fixing; 5 uL; 4% paraformaldehyde (PFA). 9; Incubation; 15 min; room temperature 10; Wash, 5 uL; 1x PBS. 11; Detection; Fluorescence, excitation filter 488 nm, emission filter 509 nm. NOTES (numbers refer to Sequence numbers above) 1. For the 1,536-well format, 40 primary human omental fibroblasts and 400 mesothelial cells were seeded with 0.02 µg fibronectin and 0.02 µg collagen type I in 4 µL of growth media (2.3 mm2; Supplementary Fig. S1A). 2. Assay plates were incubated for 48 hours at 37 C. 3. After incubation, 1,200 SKOV3ip1-GFP were seeded in 3 µL of serum-free media (growth media minus FBS) on top of primary human omental cells. 4. Compounds or controls were added to each well immediately after the addition of the cancer cells. Compounds were screened in four doses (0.36-46 µmol/L), and the plates contained the positive control (Tomatine) in eight doses (0.035-75 µmol/L) and DMSO (equal volume controls) 5 - 6. The plates were incubated at room temperature for 2 hours and then at 37 degrees C for 16 hours. 7 - 10. Following incubation, the media were aspirated and each well washed with PBS (5 µL) and then fixed with 4% paraformaldehyde (PFA; 5 µL). After 15 minutes, the PFA solution was aspirated, PBS (5 µL) was added. 11. The number of GFP-labeled cells analyzed using a fluorescent cytometer TTP LabTech Acumen eX3 using 488 nm excitation filter and 509 nm emission filter. Data was normalized to the DMSO treated for negative and Tomatine treated wells for positive control. REFERENCES: Inglese J, Shamu CE and Guy RK, Reporting data from high throughput screening of small molecule libraries, Nature Chemical Biology, 2007, 3(8): 438-441. doi.org/10.1038/nchembio0807-438. Yasgar A, Shinn P, Jadhav A, Auld DS, Michael S, Zheng W, Austin CP, Inglese J and Simeonov A, Compound Management for Quantitative High-Throughput Screening. J. Assoc. Lab. Auto., 2008, 13: 79-89. doi: 10.1016/j.jala.2007.12.004.

SMILES | activity change, negative = inhibition | outcome
O=C(CCC1N=C2c3ccccc3N=C(SCC(=O)Nc3ccc(F)cc3)N2C1=O)NCc1ccco1 (centres undefined) | inactive: 10.5% | 
O=C(Nc1ccc2nc3n(c(=O)c2c1)CCCCC3)c1cccc(C(F)(F)F)c1 | inactive: -8.07% | 
COc1cc(Nc2nc(SCC(=O)c3ccc(Cl)c(Cl)c3)nc3ccccc23)cc(OC)c1 |  | inactive
Cc1cc(C(=O)NCc2ccccc2)c2c(C)nn(-c3cccc(F)c3)c2n1 | inactive: -5.16% | 
COc1ccc(Nc2nn(-c3ccc(OC(F)(F)F)cc3)nc2C(C)=O)cc1 | inactive: -8.72% | 
COc1ccc(NC(=O)CC2Nc3ccccc3NC2=O)cc1 (centres undefined) | inactive: 12.1% | 
Cc1ccc(CNc2ccc3cc(S(=O)(=O)N4CCCCC4)ccc3n2)cc1 | inactive: -6.22% | 
Cc1nn(-c2ccccc2)c2c1N(CC(=O)N1CCN(c3ccccc3F)CC1)C(=O)CS2 |  | inactive
Cc1ccc(CNC(=O)c2ccc(CS(=O)(=O)Cc3ccc(C)cc3)o2)cc1 |  | inactive
COc1ccccc1Nc1ncnc2scc(-c3ccc(F)cc3)c12 | inactive: 15.1% | 
CCCCN(C)C(=O)Cn1cnc2sc(C)c(S(=O)(=O)N3CCC(C)CC3)c2c1=O | inactive: -1% | 
CCOC(=O)c1ccc(Nc2nn3c(=O)c4ccccc4nc3s2)cc1 |  | inactive
COc1cc(OC)c(NC(=O)N2CCC(CN3CCCC3)CC2)cc1Cl | inactive: -0.0921% | 
COc1ccc(OC)c(NC(=O)c2ccc3c(Cl)c4c(nc3c2)CCCC4)c1 | inactive: -2.46% | 
COc1ccc(CNC(=O)c2cccn2-c2nnc(N3CCCC3)s2)c(OC)c1 | inactive: -1.93% | 
COc1ccc(C2(CNC(=O)C(=O)Nc3ccccc3C)CCCC2)cc1OC | inactive: 1.43% | 
CCCCN(CCCNC(=O)c1cc(Nc2ccccc2OC)nc2ccccc12)c1ccccc1 | inactive: 15.3% | 
Cc1ccc(S(=O)(=O)c2nc(-c3ccc(F)cc3)oc2N2CCN(c3ccccc3)CC2)cc1 | inactive: -2.05% | 
CCN(CC)c1ccc(C2Nc3ccccc3-c3cc(C)nn32)cc1 (centres undefined) | inactive: 5.88% | 
Nc1c(C(=O)Nc2ccccc2)sc2nc3c(cc12)CN(Cc1ccccc1)CC3 | inactive: -1.31% | 
COc1ccc(NC(=O)c2oc3ccccc3c2NC(=O)C2CCCCC2)c(OC)c1 | inactive: -12.1% | 
Cc1cccc(-n2c(=O)c3c4c(sc3n3c(C)nnc23)CCCC4)c1 | inactive: 4.55% | 
Clc1ccc(-n2c(Cc3ccccc3)nnc2SCc2nc(-c3cccs3)no2)cc1 | inactive: 4.1% | 
Cc1ccc(NC(=O)C2CCCN(S(=O)(=O)c3c(C)noc3C)C2)cc1 (centres undefined) |  | inactive
Cc1cc(C)c(/C=C/c2onc(C)c2S(=O)(=O)N2CCC(C(=O)NCCc3ccccc3)CC2)c(C)c1 |  | inactive

SMILES | activity change, negative = inhibition | outcome
CCOC(=O)c1scc(-c2ccc(C)cc2)c1S(=O)(=O)Nc1cc(OC)ccc1OC | inactive: -8.78% | 
CCCCN(C)C(=O)c1ccc2c(c1)N(Cc1cccc(F)c1)C(=O)c1ccccc1S2 | inactive: -1.87% | 
CCOc1cc(C#N)c(-n2nnc3c(sc4nc(C)cc(C)c43)c2=O)cc1OCC |  | inactive
CCc1cccc(C)c1NC(=O)C1CCCN1S(=O)(=O)c1cccc2nsnc12 (centres undefined) | inactive: -0.364% | 
Cc1cccc(N(CC(=O)NCCSCc2ccccc2)S(=O)(=O)c2ccccc2)c1C |  | inactive
COC(=O)c1ccc(NC(=O)Cn2cnc3c2c(=O)n(C)c(=O)n3C)cc1 | inactive: -15% | 
O=C(Cn1c(=O)c2cccn2c2ccccc21)NCc1ccccc1F | inactive: -7.79% | 
CCCC(=O)N1CCN(c2nc3ccc(F)cc3s2)CC1 |  | inactive
CCn1c(=O)c(=O)n(CC)c2cc(S(=O)(=O)Nc3ccc(C)cc3)ccc21 | inactive: -20.5% | 
Cc1nc(N2CCCC2)c2c(C(=O)N3CCN(c4cc(Cl)ccc4C)CC3)c(C)oc2n1 |  | inactive
Cc1ccc(C(=O)c2cn(Cc3ccccc3)c3nc(C)ccc3c2=O)cc1 | inactive: 3.53% | 
Cc1ccc(-n2ncc3c(NCCO)ncnc32)cc1Cl | inactive: 0.469% | 
COc1cc(OC)c(NC(=O)c2cc3c(=O)oc4ccc(C)cc4c3s2)cc1Cl |  | inactive
COc1ccc(-c2cc(C(=O)Nc3cccnc3)no2)cc1OC | inactive: -24.3% | 
COC(=O)c1cc2oc3ccccc3c2n1CC(=O)Nc1ccc(C)c(F)c1 | inactive: 1.7% | 
COc1ccc(CNC(=O)Cc2ccc(NC(=O)N3CCSc4ncccc43)cc2)cc1OC | inactive: 4.56% | 
Cc1cc(NC(=O)c2cc(-c3ccc(Cl)cc3)on2)n(-c2ccccc2)n1 | inactive: -1.25% | 
Cc1cccc(C(=O)N2CCc3cc(CNC(=O)COc4ccc(Cl)cc4)ccc32)c1 | inactive: -21.2% | 
CCOc1cccc(C2c3[nH]c4ccccc4c3CCN2C(=O)CSc2ccccc2)c1 (centres undefined) | inactive: -18.3% | 
CCOc1ccc(NC(=O)Cn2c(=O)n(-c3cccc(Cl)c3)c(=O)c3c2c2cc(C)ccc2n3C)cc1 |  | inactive
COc1ccc(S(=O)(=O)Nc2cccc(-c3ccc(N4CCC(C)CC4)nn3)c2)c(OC)c1 | inactive: -1.84% | 
COc1cc(NC(=O)c2ccc3oc(=O)c(S(=O)(=O)c4ccccc4)cc3c2)cc(OC)c1 | inactive: 11% | 
COc1c(C)cc(Br)cc1C(=O)Nc1ccc(-c2nc3ncccc3o2)cc1 | inactive: -28.2% | 
CCSc1nnc2c(n1)OC(c1cc(OC)c(OC)c(OC)c1)Nc1ccccc1-2 (centres undefined) | inactive: 2.08% | 
